Results as given in patent US10106559B2, “Substituted tetrahydrocarbazole and carbazole carboxamide compounds” (BRISTOL-MYERS SQUIBB COMPANY, priority 2013, dated 2018).
For at least one compound, name, drawing or mass did not settle the structure.

Biological target: Jak2 tyrosine kinase (Homo sapiens (Human), UniProt O60674)
Experiment: Jak2 Tyrosine Kinase Assay
Assay type: biochemical
Settings: selectivity: Jak2 IC50 divided by Btk IC50

Sequence of Jak2 tyrosine kinase (O60674 whole entry): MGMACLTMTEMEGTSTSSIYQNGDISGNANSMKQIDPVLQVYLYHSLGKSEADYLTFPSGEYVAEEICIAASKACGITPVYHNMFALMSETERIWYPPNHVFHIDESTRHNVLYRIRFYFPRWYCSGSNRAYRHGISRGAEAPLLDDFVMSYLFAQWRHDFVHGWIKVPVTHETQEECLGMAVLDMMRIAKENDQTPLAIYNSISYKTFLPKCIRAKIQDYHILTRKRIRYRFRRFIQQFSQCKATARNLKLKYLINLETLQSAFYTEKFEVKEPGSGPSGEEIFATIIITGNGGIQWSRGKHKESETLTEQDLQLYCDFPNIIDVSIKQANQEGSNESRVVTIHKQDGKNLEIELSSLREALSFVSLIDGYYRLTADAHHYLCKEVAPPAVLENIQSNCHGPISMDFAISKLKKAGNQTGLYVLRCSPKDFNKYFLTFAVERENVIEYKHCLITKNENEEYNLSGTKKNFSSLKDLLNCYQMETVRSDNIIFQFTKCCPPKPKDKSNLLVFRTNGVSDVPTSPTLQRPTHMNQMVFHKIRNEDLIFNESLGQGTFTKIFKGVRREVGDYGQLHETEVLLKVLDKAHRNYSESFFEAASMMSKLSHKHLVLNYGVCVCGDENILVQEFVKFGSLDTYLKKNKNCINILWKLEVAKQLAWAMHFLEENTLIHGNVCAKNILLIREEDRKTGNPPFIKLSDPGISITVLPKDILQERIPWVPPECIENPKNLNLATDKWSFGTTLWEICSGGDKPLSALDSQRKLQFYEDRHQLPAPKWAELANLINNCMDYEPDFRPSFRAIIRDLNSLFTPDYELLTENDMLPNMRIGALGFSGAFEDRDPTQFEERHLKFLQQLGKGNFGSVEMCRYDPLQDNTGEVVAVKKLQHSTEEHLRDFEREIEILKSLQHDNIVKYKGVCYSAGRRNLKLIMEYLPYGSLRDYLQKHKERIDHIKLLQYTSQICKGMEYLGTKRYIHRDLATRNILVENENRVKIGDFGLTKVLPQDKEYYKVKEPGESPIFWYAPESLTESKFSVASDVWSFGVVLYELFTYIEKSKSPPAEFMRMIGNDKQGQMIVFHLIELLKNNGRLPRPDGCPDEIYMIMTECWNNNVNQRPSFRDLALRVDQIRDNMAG

SMILES | Ratio of Jak2/Btk IC50 values
Cc1c(-c2c(Cl)cc(C(N)=O)c3[nH]c4cc(C(C)(C)O)ccc4c23)cccc1-n1c(=O)c2cccc(C)c2n(C)c1=O [Example 4, 3-Chloro-4-(R)-(3-(1,8-dimethyl-2,4-dioxo-1,2-dihydroquinazolin-3(4H)-yl)-2-methylphenyl)-7-(2-hydroxypropan-2-yl)-9H-carbazole-1-carboxamide] | 270
Cc1c(-c2c(Cl)cc(C(N)=O)c3[nH]c4cc(C(C)(C)O)ccc4c23)cccc1-n1c(=O)c2ccc(F)cc2n(C)c1=O [Example 9, 3-Chloro-4-(R)-(3-(7-fluoro-1-methyl-2,4-dioxo-1,2-dihydroquinazolin-3(4H)-yl)-2-methylphenyl)-7-(2-hydroxypropan-2-yl)-9H-carbazole-1-carboxamide] | >3200
Cn1c(=O)n(-c2cccc(-c3c(F)cc(C(N)=O)c4[nH]c5cc(C(C)(C)O)ccc5c34)c2Cl)c(=O)c2cccc(F)c21 [Example 60] | 1500
Cn1c(=O)n(-c2cccc(-c3c(F)cc(C(N)=O)c4[nH]c5cc(C(C)(C)O)ccc5c34)c2Cl)c(=O)c2cccc(F)c21 [Example 46, 4-(2-Chloro-3-(8-fluoro-1-methyl-2,4-dioxo-1,2-dihydroquinazolin-3(4H)-yl)phenyl)-3-fluoro-7-(2-hydroxypropan-2-yl)-9H-carbazole-1-carboxamide] | 1300
Cc1c(-c2c(Cl)cc(C(N)=O)c3[nH]c4cc(C(C)(C)O)ccc4c23)cccc1-n1c(=O)ccn(-c2ccc(F)cc2)c1=O [Example 24, 3-Chloro-4-(R)-(3-(3-(4-fluorophenyl)-2,6-dioxo-2,3-dihydropyrimidin-1(6H)-yl)-2-methylphenyl)-7-(2-hydroxypropan-2-yl)-9H-carbazole-1-carboxamide] | 5500
Cc1c(-c2c(Cl)cc(C(N)=O)c3[nH]c4cc(C(C)(C)O)ccc4c23)cccc1-n1c(=O)ccn(-c2ccc(F)cc2)c1=O [Example 23, 3-Chloro-4-(3-(3-(4-fluorophenyl)-2,6-dioxo-2,3-dihydropyrimidin-1(6H)-yl)-2-methylphenyl)-7-(2-hydroxypropan-2-yl)-9H-carbazole-1-carboxamide] | 1000
COc1cccc2c(=O)n(-c3cccc(-c4c(Cl)cc(C(N)=O)c5[nH]c6cc(C(C)(C)O)ccc6c45)c3C)c(=O)n(C)c12 [Example 7, 3-Chloro-7-(2-hydroxypropan-2-yl)-4-(R)-(3-(8-methoxy-1-methyl-2,4-dioxo-1,2-dihydroquinazolin-3(4H)-yl)-2-methylphenyl)-9H-carbazole-1-carboxamide] | 2000
Cn1c(=O)n(-c2cccc(-c3c(F)cc(C(N)=O)c4[nH]c5cc(C(C)(C)O)ccc5c34)c2Cl)c(=O)c2cccc(F)c21 [Example 61] | 1400
Cc1c(-c2c(Cl)cc(C(N)=O)c3[nH]c4cc(C(C)(C)O)ccc4c23)cccc1-n1c(=O)c2ccccc2n(C)c1=O [Example 3, 3-Chloro-7-(2-hydroxypropan-2-yl)-4-(R)-(2-methyl-3-(1-methyl-2,4-dioxo-1,2-dihydroquinazolin-3(4H)-yl)phenyl)-9H-carbazole-1-carboxamide] | 2000
CC(C)(O)c1ccc2c(c1)[nH]c1c(C(N)=O)cc(Cl)c(-c3cccc(-n4c(=O)[nH]c5c(F)cccc5c4=O)c3Cl)c12 [Example 47, 3-Chloro-4-(R)-(2-chloro-3-(8-fluoro-2,4-dioxo-1,2-dihydroquinazolin-3(4H)-yl)phenyl)-7-(2-hydroxypropan-2-yl)-9H-carbazole-1-carboxamide] | 5100
